Results taken from publication PMC6919601, “Identification of Plasmodium dipeptidyl aminopeptidase allosteric inhibitors by high throughput screening” (PLoS ONE, 2019).
About 230 (0.21%) of roughly 110,000 compounds showed an effect of 50% or more. This is one part of the list.

target: DPAP1 (Plasmodium falciparum, UniProt Q8IIJ9); assay: primary screen, percent inhibition; read by cleavage of a fluorogenic dipeptide substrate; higher = more effect of the substance; parameters: species or system P. falciparum D10 trophozoite lysates; single well
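Also: 30 min substrate incubation versus DMSO and 10 µM JCP410 controls.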

Sequence of DPAP1 (Q8IIJ9 whole entry, looked up): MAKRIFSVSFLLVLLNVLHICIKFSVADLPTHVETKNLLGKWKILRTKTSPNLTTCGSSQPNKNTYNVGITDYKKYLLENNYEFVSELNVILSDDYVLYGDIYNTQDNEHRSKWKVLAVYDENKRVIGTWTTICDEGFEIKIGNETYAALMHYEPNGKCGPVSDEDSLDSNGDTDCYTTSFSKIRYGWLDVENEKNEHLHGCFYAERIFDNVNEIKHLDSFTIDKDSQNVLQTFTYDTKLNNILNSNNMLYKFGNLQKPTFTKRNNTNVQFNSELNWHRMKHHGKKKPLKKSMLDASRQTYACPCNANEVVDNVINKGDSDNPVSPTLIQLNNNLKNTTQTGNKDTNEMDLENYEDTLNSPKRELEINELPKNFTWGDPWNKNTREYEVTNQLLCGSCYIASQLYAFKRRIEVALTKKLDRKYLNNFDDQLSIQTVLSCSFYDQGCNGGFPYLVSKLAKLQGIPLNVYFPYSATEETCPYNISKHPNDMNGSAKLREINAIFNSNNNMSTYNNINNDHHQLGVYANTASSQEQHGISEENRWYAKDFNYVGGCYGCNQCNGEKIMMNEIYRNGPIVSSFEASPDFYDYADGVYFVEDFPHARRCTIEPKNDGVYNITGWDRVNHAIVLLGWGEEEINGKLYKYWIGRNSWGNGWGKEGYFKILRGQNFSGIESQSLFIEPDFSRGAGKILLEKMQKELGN

Compound | % Inhibition @ 10 uM [%]
Cc1noc(C)c1S(=O)(=O)N1CCC(C(=O)NCc2ccccc2)CC1 | -4.5
CCO/C(O)=C1/C(C)=NC2=C(C(=O)CC(c3ccccc3)C2)C1c1ccncc1 (stereo not shown) | -5.62
COC(=O)c1ccc(C(F)(F)F)cc1O | -0.268
COCCNC(=O)c1c(C)oc2ncn(C)c(=O)c12 | -5.76
O=c1ccc(=O)n(-c2ccc(Br)cc2)[nH]1 | -0.807
COCc1cc(C)nc(SCC(=O)Nc2nc(-c3ccc(C)cc3)cs2)c1C#N | -1.38
CCCc1nn(-c2ccc(F)cc2)c(O)c1/C=N/CCc1ccc(Cl)cc1 | -0.25
CCOc1cc(CN(C)CCN(C)C)ccc1O | -2.02
CC(=O)Nc1ccc(NC(=O)c2ccc(Br)o2)cc1 | 0.843
COc1ccc(C2C(C(=O)c3ccc(F)cc3)=C(O)C(=O)N2CCCN(C)C)cc1 (stereo not shown) | -1.17
NS(=O)(=O)c1ccc(NC(=O)c2ccc(-c3ccc(Cl)c(C(F)(F)F)c3)o2)cc1 | -3.43
CCO/C(O)=C1\C(C)=Nc2ncnn2C1c1cn(-c2ccccc2)nc1-c1cccs1 (stereo not shown) | -0.125
COc1cc(-c2ccccc2O)ncn1 | -1.5
CCCCNC(=O)C1COc2ccccc2O1 (stereo not shown) | 0.162
CC1=C(CCN2CCCC(CO)C2)C(C)(C)CCC1 (stereo not shown) | -5.31
COc1ccc(CN2CCN(Cc3ccccc3Cl)CC2)c(OC)c1OC | -2.15
Oc1nc2c(s1)C(c1ccc(F)cc1)C1C3CCC(C3)C1S2 (stereo not shown) | -3.52
CCOC(=O)CC(C)(O)c1ccccc1 (stereo not shown) | -1.74
COC(=O)C1=CN(Cc2ccccc2)C=C(C(=O)OC)C1c1ccc(Cl)c(Cl)c1 | -2.87
CCCCNC(=O)c1c2c(nn1C)-c1ccccc1SC2 | -13.7
O=C(CCc1nnc2ccc(N3CCCC3)nn12)N1CCN(C(=O)c2ccco2)CC1 | -3.13
O=C1/C(=C/c2c[nH]nc2-c2ccccc2)Sc2ccccc21 | -1.84
COc1ccc(C2NC(=O)NC3=C2C(=O)CCC3)cc1 (stereo not shown) | 4.61

Compound | % Inhibition @ 10 uM [%]
COCCn1c(CCC(=O)O)ccc1-c1ccccc1 | 0.558
O=C(NCc1ccco1)C1CCCN1c1nnc(N2CCCC2=O)s1 (stereo not shown) | 3.87
COc1ccc(CNCC(O)c2nnn(C)n2)cc1OC (stereo not shown) | 1.11
CC(=O)Nc1c(O)cc(Br)c2nonc12 | 0.708
CCOC(=O)N1CCC(NC(=O)Cn2ncc3ccsc3c2=O)CC1 | -8.42
CC(C)(C)OC(=O)N1CCC(c2cc(O)n3ncc(C(=O)NCc4ccc(Cl)cc4)c3n2)CC1 | 2.39
CN(Cc1ccccc1)C(=O)c1cc(-c2ccccc2O)on1 | -1.84
OCCCN1CCN(C(c2cccc(Cl)c2)c2ccccc2Cl)CC1 (stereo not shown) | 12.8
CCCCNC(=O)OC(C)CNC(=O)OC (stereo not shown) | -2.98
COc1ccc(Nc2nc3ccccc3c(=O)s2)cc1 | 17.9
Cc1ccc2c(Cl)c(C(=O)Nc3cccnc3)sc2c1 | 2.68
O=C(CCn1cccc1)NCc1ccc2c(c1)OCO2 | -0.933
Cc1c(C(C)(C)C)s/c(=N/C(=O)c2ccccc2O)n1C | 3.43
Oc1c2c(nc3c(-c4ccccc4)c(Cc4ccccc4)nn13)CCC2 | -3.44
CCOC(=O)CP(=O)(CC)OCC (stereo not shown) | -0.274
Cc1cc(C)n2nc(Cc3ccccc3)c(-c3ccc(Cl)cc3)c2n1 | 1.27
O=C(COc1ccccc1F)Nc1ccc2c(c1)CCC2 | -15.9
O=C1c2cccc3cccc(c23)C(=O)N1CCC(=O)N1CCCc2ccccc21 | -2.8
Cc1[nH]c2ccccc2c1CCNC(=S)NC(C)(C)C | -0.431
O=C(Nc1ccon1)c1ccc(S(=O)(=O)N2CCCC2)cc1 | 0.316
O=C(O)CCN1C(=O)NC2NC(=O)NC21 (stereo not shown) | -1.93
Cc1nn(C)cc1CNC(=O)c1cc2nc(-c3ccc(Cl)s3)cc(C(F)(F)F)n2n1 | -2.77
Cc1cc(C)c(Cn2c3ccccc3c3cnn(CC(=O)O)c(=O)c32)c(C)c1 | 4.79

Compound | % Inhibition @ 10 uM [%]
Cc1nn(CC(=O)N2CCN(C)CC2)c(=O)c2nn(-c3ccccc3)c(C)c12 | 5.46
CCCn1c2ccccc2c2cnn(CC(=O)N3CCC(c4ccccc4)C3)c(=O)c21 (stereo not shown) | 2.82
Cc1sc(NC(=O)/C=C/c2ccco2)c(C(=O)O)c1C | 1.26
CCN(CC)c1ncnc2c1cnn2C | 1.42
C#CCOc1ccc(/C=C2/NC(=O)N(CC(=O)Nc3cccc(C)c3)C2=O)cc1 | -8.01
Cc1ccccc1CN1CCN(c2ccccc2Cl)CC1 | -0.192
CCOc1ccc(C2CC(c3ccc(CC)cc3)Nc3nnnn32)cc1OC (stereo not shown) | -3.37
Cc1cccc(C(=O)Nc2cc(Cl)ccc2Cl)c1 | -0.197
CCN1CCN(CCCNC(=O)Cn2c(=O)c3cccn3c3cccnc32)CC1 | 1.8
CCN(CC)C(=O)Sc1nc2ccccc2s1 | -2.39
CCN(CC)C(=O)c1sc2c(c1C)c(=O)n(Cc1ccccc1)c(=O)n2CC(=O)C(C)(C)C | 3.52
CC1=C(C(=O)OCc2ccc(C)cc2)C(c2c(F)cccc2Cl)CC(=O)N1 (stereo not shown) | -2.87
NC(=O)/C=C/C(=O)Nc1ccccc1 | -3.13
O=C(O)Cn1c(-c2ccccc2)nc2ccccc21 | 7.56
N#CC1(NC(=O)[C@H](Cc2c(F)cccc2F)NC(=O)c2ccc(-c3ccccc3Cl)c(Cl)c2)CCN(CC(F)(F)F)CC1 | -0.207
Cc1cc2nc(-c3ccccc3)c(=O)n(C)c2cc1C | 3.53
Cc1onc(-c2ccccc2)c1C(=O)N1CCC(Cc2ccccc2)CC1 | -4.59
Cc1cc(NC(=O)COCc2cc(-c3cccs3)on2)no1 | -1.04
O=C(COc1ccc(Cl)cc1Br)Nc1ccc(S(=O)(=O)N2CCCCC2)cc1 | -1.44
COc1ccc(CNC(=O)CNS(=O)(=O)c2ccc(Cl)cc2)cc1 | -6.37
CCCCN(C)CCCNC(=O)CCCn1c2ccccc2c2cnnc(O)c21 | 1.38
